Assay results reported in the supplement of paper PMC4967469.
IC50 is the fitted dose that halves viability relative to control wells, and lower means more sensitive; a fit beyond the top or the lowest dose is shown as a bound at that dose. AUC, from the same fit, is the share of area under the viability curve across the 256-fold dose range; values near 1 show little effect. For some assays here: Where the top dose is marked as inferred, it was derived from the fitted curves, not read from the paper. For some assays here: Drugs with an entry number were screened twice under separate entries, and the two screens often disagree.

Key:
Assay in all cases: Viability of human cancer cell lines after 72 h of drug (GDSC screen)
Vinblastine = compound: CC[C@]1(O)C[C@@H]2CN(CCc3c([nH]c4ccccc34)[C@@](C(=O)OC)(c3cc4c(cc3OC)N(C)[C@H]3[C@@](O)(C(=O)OC)[C@H](OC(C)=O)[C@]5(CC)C=CCN6CC[C@]43[C@@H]65)C2)C1 [Vinblastine]; details: top dose 0.1 µM; top dose inferred
Experimental: (§1)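 Human cancer cell lines in 384-well plates, medium with 10% serum, drug for 72 h over a 256-fold dose range (nine 2-fold or five 4-fold steps up to the top dose). Adherent lines were fixed and stained with the nucleic acid dye Syto60, suspension lines read with resazurin; signal relative to control wells, capped at 0 and 100%. One two-parameter sigmoid per drug and line, fitted in a mixed model over all curves with the slope shared within a line.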

XMD13-2 = compound: O=C(NC1CC1)c1cccc(-c2ccc3c(NC(=O)C4CC4)n[nH]c3c2)c1 [XMD13-2]; details: top dose 10.24 µM; top dose inferred
Experimental: as §1

Afatinib = compound: CN(C)C/C=C/C(=O)Nc1cc2c(Nc3ccc(F)c(Cl)c3)ncnc2cc1O[C@H]1CCOC1 [Afatinib]
Experimental: as §1

PF-562271 = compound: CN(c1ncccc1CNc1nc(Nc2ccc3c(c2)CC(=O)N3)ncc1C(F)(F)F)S(C)(=O)=O [PF-562271]; details: top dose 2.56 µM; top dose inferred
Experimental: as §1

SNX-2112 = compound: CC1(C)CC(=O)c2c(C(F)(F)F)nn(-c3ccc(C(N)=O)c(N[C@H]4CC[C@H](O)CC4)c3)c2C1 [SNX-2112]; details: top dose 2.56 µM
Experimental: as §1

[1] = top dose 0.5 µM, screen: GDSC drug entry 1032
[2] = top dose 10 µM, screen: GDSC drug entry 1377, top dose inferred

Row | Cell Line | AUC (Vinblastine) | IC50 (Vinblastine) [nM] | AUC (XMD13-2) | IC50 (XMD13-2) [nM] | AUC (Afatinib; [1]) | IC50 (Afatinib; [1]) [nM] | AUC (Afatinib; [2]) | IC50 (Afatinib; [2]) [nM] | AUC (PF-562271) | IC50 (PF-562271) [nM] | AUC (SNX-2112) | IC50 (SNX-2112) [nM]
1 | NCI-H1838 (lung adenocarcinoma, adherent) | 0.859 | > 100 | 0.984 | > 10200 | 0.868 | > 500 | 0.932 | > 10000 | 0.983 | > 2560 | 0.961 | > 2560
2 | NCI-H1568 (lung adenocarcinoma, adherent) | 0.736 | 35.5 | 0.967 | > 10200 | 0.813 | 357 | 0.479 | 542 | 0.903 | > 2560 | 0.93 | > 2560
3 | MOLM-13 (acute myeloid leukaemia, suspension) | 0.448 | 4.55 | 0.821 | 5430 | 0.983 | > 500 | 0.961 | > 10000 | 0.571 | 247 | 0.139 | 13.2
4 | PCI-15A (head and neck, adherent) | 0.93 | > 100 | 0.944 | > 10200 | 0.913 | > 500 | 0.877 | > 10000 | 0.948 | > 2560 | 0.975 | > 2560
5 | NCI-H2052 (mesothelioma, adherent) | 0.653 | 18.7 | 0.968 | > 10200 | 0.971 | > 500 | – | – | 0.932 | > 2560 | 0.906 | > 2560
6 | KOPN-8 (B-cell leukaemia, suspension) | 0.428 | 4.1 | 0.617 | 1280 | 0.989 | > 500 | 0.989 | > 10000 | 0.907 | > 2560 | 0.21 | 26.5
7 | VMRC-RCW (kidney, adherent) | 0.891 | > 100 | 0.987 | > 10200 | 0.966 | > 500 | – | – | 0.987 | > 2560 | 0.894 | > 2560
8 | BE2-M17 (neuroblastoma, adherent) | 0.591 | 11.2 | 0.959 | > 10200 | 0.968 | > 500 | 0.986 | > 10000 | 0.942 | > 2560 | 0.92 | > 2560
9 | P12-ICHIKAWA (T-cell lymphoblastic leukaemia, suspension) | 0.67 | 16.5 | 0.937 | > 10200 | 0.994 | > 500 | 0.994 | > 10000 | 0.93 | > 2560 | 0.308 | 53.5
10 | HL-60 (acute myeloid leukaemia, suspension) | 0.446 | 4.51 | 0.879 | 8650 | 0.964 | > 500 | 0.989 | > 10000 | 0.92 | > 2560 | 0.315 | 51.7
11 | RPMI-8866 (chronic myeloid leukaemia, suspension) | 0.122 | 0.438 | 0.896 | > 10200 | 0.981 | > 500 | 0.929 | > 10000 | 0.987 | > 2560 | 0.166 | 17
12 | PC-3 [JPC-3] (lung adenocarcinoma, adherent) | 0.862 | > 100 | 0.957 | > 10200 | 0.465 | 24.3 | 0.286 | 126 | 0.954 | > 2560 | 0.805 | 1830
13 | UACC-62 (melanoma, adherent) | 0.509 | 6.6 | 0.962 | > 10200 | 0.965 | > 500 | 0.969 | > 10000 | 0.896 | > 2560 | 0.97 | > 2560
14 | NCI-H1693 (lung adenocarcinoma, adherent) | 0.772 | 65.1 | 0.954 | > 10200 | 0.843 | > 500 | 0.712 | 3640 | 0.958 | > 2560 | 0.961 | > 2560
15 | CP50-MEL-B (melanoma, adherent) | 0.589 | 10.9 | 0.985 | > 10200 | 0.972 | > 500 | 0.977 | > 10000 | 0.968 | > 2560 | 0.618 | 338
16 | KYSE-70 (oesophagus, adherent) | 0.747 | 34.7 | 0.952 | > 10200 | 0.986 | > 500 | 0.968 | > 10000 | 0.966 | > 2560 | 0.905 | > 2560
17 | NCI-H1688 (small cell lung carcinoma, adherent) | 0.744 | 34 | 0.963 | > 10200 | 0.985 | > 500 | 0.984 | > 10000 | 0.963 | > 2560 | 0.814 | 1570
18 | NCI-H2405 (lung adenocarcinoma, adherent) | 0.952 | > 100 | 0.964 | > 10200 | 0.977 | > 500 | 0.976 | > 10000 | 0.942 | > 2560 | 0.883 | > 2560
19 | Hs683 (glioma, adherent) | 0.629 | 14.2 | 0.916 | > 10200 | 0.981 | > 500 | 0.984 | > 10000 | 0.937 | > 2560 | 0.643 | 400
20 | G-292 Clone A141B1 (osteosarcoma, adherent) | 0.684 | 28 | 0.972 | > 10200 | 0.976 | > 500 | 0.947 | > 10000 | 0.525 | 195 | 0.784 | 1900
21 | T98G (glioma, adherent) | 0.598 | – | 0.967 | > 10200 | 0.986 | > 500 | 0.986 | > 10000 | 0.944 | > 2560 | 0.647 | 395

Row | Cell Line | AUC (Vinblastine) | IC50 (Vinblastine) [nM] | AUC (XMD13-2) | IC50 (XMD13-2) [nM] | AUC (Afatinib; [1]) | IC50 (Afatinib; [1]) [nM] | AUC (Afatinib; [2]) | IC50 (Afatinib; [2]) [nM] | AUC (PF-562271) | IC50 (PF-562271) [nM] | AUC (SNX-2112) | IC50 (SNX-2112) [nM]
22 | no-11 (glioma, adherent) | 0.701 | 26.8 | 0.935 | > 10200 | 0.931 | > 500 | 0.974 | > 10000 | 0.959 | > 2560 | 0.528 | 195
23 | NCI-H1666 (lung adenocarcinoma, semi-adherent) | 0.673 | 19.9 | 0.981 | > 10200 | 0.609 | 64.1 | 0.514 | 683 | 0.985 | > 2560 | 0.774 | 1100
24 | CTV-1 (acute myeloid leukaemia, suspension) | 0.257 | 1.5 | 0.73 | 2460 | 0.971 | > 500 | 0.982 | > 10000 | 0.924 | > 2560 | 0.207 | 27.8
25 | MC116 (B-cell lymphoma, suspension) | 0.497 | 6.15 | 0.926 | 7220 | 0.999 | > 500 | 0.999 | > 10000 | 0.966 | 2510 | 0.225 | 34.7
26 | SU-DHL-16 (B-cell lymphoma, suspension) | 0.443 | 4.54 | 0.852 | 4800 | 0.996 | > 500 | 0.993 | > 10000 | 0.848 | 1170 | 0.162 | 23.2
27 | KU812 (chronic myeloid leukaemia, suspension) | 0.686 | 19.7 | 0.698 | 2180 | 0.983 | > 500 | 0.963 | > 10000 | 0.96 | > 2560 | 0.111 | 10.3
28 | KMOE-2 (acute myeloid leukaemia, suspension) | 0.581 | 10.2 | 0.95 | > 10200 | 0.99 | > 500 | 0.947 | > 10000 | 0.942 | > 2560 | 0.302 | 47.7
29 | RL (B-cell lymphoma, suspension) | 0.371 | 2.85 | 0.905 | > 10200 | 0.99 | > 500 | 0.952 | > 10000 | 0.99 | > 2560 | 0.311 | 49.9
30 | G-402 (soft tissue, adherent) | 0.556 | 9.32 | 0.919 | > 10200 | 0.95 | > 500 | 0.95 | > 10000 | 0.813 | 2000 | 0.686 | 635
31 | HCC1143 (breast, adherent) | 0.657 | 20.5 | 0.957 | > 10200 | 0.862 | > 500 | 0.921 | > 10000 | 0.867 | > 2560 | 0.478 | 136
32 | SNU-182 (liver, adherent) | 0.355 | 2.44 | 0.948 | > 10200 | 0.941 | > 500 | 0.911 | > 10000 | 0.934 | > 2560 | 0.633 | 379
33 | VAL (B-cell lymphoma, suspension) | 0.632 | 14.5 | 0.695 | 2260 | 0.98 | > 500 | 0.964 | > 10000 | 0.959 | > 2560 | 0.274 | 36.4
34 | LS-180 (large intestine, adherent) | 0.789 | 51.3 | 0.978 | > 10200 | 0.91 | > 500 | 0.894 | > 10000 | 0.904 | > 2560 | 0.714 | 710
35 | CMK (acute myeloid leukaemia, suspension) | 0.893 | 87 | 0.864 | 6770 | 0.99 | > 500 | 0.947 | > 10000 | 0.906 | 2550 | 0.15 | 17.1
36 | H3118 (head and neck, adherent) | 0.503 | 6.35 | 0.883 | > 10200 | 0.28 | 6.98 | 0.161 | 50.3 | 0.841 | 2030 | 0.374 | 69.3
37 | PCI-6A (head and neck, adherent) | 0.321 | 2 | 0.741 | 3070 | 0.483 | 28.1 | 0.667 | 1800 | 0.894 | > 2560 | 0.348 | 61.2
38 | T84 (large intestine, adherent) | 0.987 | > 100 | 0.936 | > 10200 | 0.976 | > 500 | 0.952 | > 10000 | 0.983 | > 2560 | 0.562 | 237
39 | SUP-T1 (T-cell lymphoblastic leukaemia, suspension) | 0.863 | 74 | 0.873 | 8310 | 0.989 | > 500 | 0.989 | > 10000 | 0.937 | > 2560 | 0.332 | 57.3
40 | 201T (lung adenocarcinoma, adherent) | 0.582 | 11.1 | 0.939 | > 10200 | 0.919 | > 500 | – | – | 0.872 | > 2560 | 0.845 | > 2560
41 | EW-16 (Ewing sarcoma, adherent) | 0.562 | 9.3 | 0.848 | 8150 | 0.971 | > 500 | 0.886 | > 10000 | 0.855 | 2190 | 0.577 | 263
42 | Hs633T (fibrosarcoma, adherent) | 0.597 | 11 | 0.933 | > 10200 | 0.962 | > 500 | 0.99 | > 10000 | 0.886 | 1930 | 0.338 | 62.4
